PubChem BioAssay AID504332 (National Center for Advancing Translational Sciences (NCATS), 2011)
“And” between values parts separate entries of the source, which are not always exact repeats. Identical values can stand only once. About 31,000 (8.9%) of roughly 350,000 compounds were called active. The inconclusive results got no clear call from the source; some entries with a clear call stand among them for comparison. Calls follow the shape of the dose curve; as a rule, active = well fitted inhibition curve with a large enough effect; inconclusive = small, poorly fitted or top-dose-only effect; inactive = no such curve, though single readings can be large or run the other way. Where the call is inconclusive, the potency comes from a doubtful curve fit.

Target: Histone-lysine N-methyltransferase EHMT2 (Homo sapiens) (UniProt Q96KQ7)
Chain of UniProt Q96KQ7 (Q96KQ7 whole entry, looked up): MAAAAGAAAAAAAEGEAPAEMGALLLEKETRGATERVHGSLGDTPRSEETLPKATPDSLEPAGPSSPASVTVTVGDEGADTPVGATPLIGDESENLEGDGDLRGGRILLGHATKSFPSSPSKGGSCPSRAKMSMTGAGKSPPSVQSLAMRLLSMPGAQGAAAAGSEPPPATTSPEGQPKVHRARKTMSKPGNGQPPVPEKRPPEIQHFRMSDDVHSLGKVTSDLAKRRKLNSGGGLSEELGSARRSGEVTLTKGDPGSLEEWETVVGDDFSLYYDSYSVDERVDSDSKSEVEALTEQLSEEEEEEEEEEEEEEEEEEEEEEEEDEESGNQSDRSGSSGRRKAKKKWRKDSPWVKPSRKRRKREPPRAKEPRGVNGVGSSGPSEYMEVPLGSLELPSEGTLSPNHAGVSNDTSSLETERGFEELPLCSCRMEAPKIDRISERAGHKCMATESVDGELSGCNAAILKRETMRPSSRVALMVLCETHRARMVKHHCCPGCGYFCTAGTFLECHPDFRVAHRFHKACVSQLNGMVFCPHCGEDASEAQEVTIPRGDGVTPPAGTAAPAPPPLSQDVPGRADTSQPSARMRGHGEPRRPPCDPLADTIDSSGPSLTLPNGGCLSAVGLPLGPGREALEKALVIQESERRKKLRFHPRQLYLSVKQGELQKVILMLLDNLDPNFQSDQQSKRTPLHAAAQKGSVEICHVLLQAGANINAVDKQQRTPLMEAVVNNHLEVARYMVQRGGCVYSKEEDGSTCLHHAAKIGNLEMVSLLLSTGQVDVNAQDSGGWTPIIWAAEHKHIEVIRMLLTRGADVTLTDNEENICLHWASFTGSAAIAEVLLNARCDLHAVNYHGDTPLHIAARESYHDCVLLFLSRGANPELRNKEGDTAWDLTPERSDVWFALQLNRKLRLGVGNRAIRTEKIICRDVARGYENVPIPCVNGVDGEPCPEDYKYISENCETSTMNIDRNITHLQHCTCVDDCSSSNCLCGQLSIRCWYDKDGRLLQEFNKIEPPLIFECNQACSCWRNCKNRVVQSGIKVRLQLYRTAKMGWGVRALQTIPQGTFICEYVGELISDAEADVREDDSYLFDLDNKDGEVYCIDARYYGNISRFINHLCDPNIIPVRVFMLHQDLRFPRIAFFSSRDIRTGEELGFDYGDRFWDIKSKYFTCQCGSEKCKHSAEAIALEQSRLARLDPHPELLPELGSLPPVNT
Assay: qHTS Assay for Inhibitors of Histone Lysine Methyltransferase G9a; also: nearly all actives have a fitted effect of over 75% in size
Conditions: G9a H3K9 monomethylation, AlphaScreen, 2 h; activity, negative = inhibition: at 59 µM (top of the series) unless noted
Procedure, shortened: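 Quantitative HTS format: methyltransferase activity on a biotin-tagged H3K9 peptide is measured by AlphaScreen, using a rabbit anti-monomethyl-H3K9 antibody with streptavidin donor and anti-IgG acceptor beads. Final levels are 20 nM enzyme, 500 nM peptide, 20 uM SAM; 2 h RT.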
% is scaled to controls: 0 for no effect and ±100 for the full control effect; potency is read from the fitted curve at half-maximal effect; tags tell the direction and shape of the fitted curve.

Row | SMILES | Potency | activity, negative = inhibition
1 | CNC(=O)c1cc2ccc(OC)cc2oc1=O | inconclusive: 1.78 µM [inhibitor, partial curve, poor fit] | –
2 | CCCN(Cc1ccc(N(CC)CC)cc1)CC1CC1 | inconclusive: 28.2 µM [inhibitor, single point] | –
3 | O=C(O)C1(NS(=O)(=O)c2ccc(Cl)cc2)CCCCC1 | inconclusive: 8.91 µM [inhibitor, single point] | –
4 | Cc1cc(C)nc(N/N=C/c2ccccc2OCc2ccccc2)n1 | – | inactive: -2.35%
5 | CCOc1ccc(C(C#N)N2CCOCC2)cc1OC (centres undefined) | – | inactive: -0.819% [at 12.7 µM]
6 | Cc1cc(Oc2ccc(N)cn2)ccc1Cl | inconclusive: 25.1 µM [inhibitor, single point] | –
7 | COc1ccc(S(=O)(=O)Oc2cc(C(=S)N3CCOCC3)ccc2OC)cc1 | active: 35.5 µM | –
8 | O=C(COc1ccc2c3c(c(=O)oc2c1)CCCC3)N1CCN(c2ccc(F)cc2)CC1 | inconclusive: 79.4 µM [inhibitor, single point] | –
9 | O=C(NC1CCCc2ccccc21)c1cc(S(=O)(=O)N2CCOCC2)ccc1F (centres undefined) | – | inactive: 22.2% [at 102 µM]
10 | Cc1ccc(S(=O)(=O)NCC(=O)N(CC(=O)NCc2ccccc2)CC2CCCO2)cc1 (centres undefined) | inconclusive: 79.4 µM [inhibitor, single point] | –
11 | COc1ccc(CN2CCN(C)CC2)cc1OCc1ccccc1 | inconclusive: 1.26 µM [inhibitor, full curve, poor fit] | –
12 | O=C(c1ccco1)N1CCN(Cc2nnc(-c3cccc(Br)c3)o2)CC1 | inconclusive: 79.4 µM [inhibitor, single point] | –
13 | COc1ccc(NC(=O)CSc2nnc(C3CCCCC3)n2-c2ccccc2)cc1 | – | inactive: 9% [at 2.33 µM]
14 | COc1ccc(OC)c(Nc2nc3ccccc3nc2-n2nc(C)cc2C)c1 | – | inactive: 98.8%
15 | Cc1ccc(N2N=C(c3ccc(Br)cc3)CCC2=O)cc1 | inconclusive: 8.91 µM [inhibitor, partial curve, poor fit] | –
16 | COc1ccc2c(c1)c1c(c(=O)n(-c3cc(Cl)ccc3C)c(=O)n1CC(=O)N1CCCC1)n2C | inconclusive: 7.08 µM [inhibitor, single point] | –
17 | Cc1nn2c(=O)cc(COc3ccc(/C=C(\C#N)C(=O)Nc4ccccc4C)cc3)nc2s1 | inconclusive: 31.6 µM [inhibitor, single point] | –
18 | CCOC(=O)CSc1nc(-c2ccccc2)ns1 | active: 8.91 µM | –
19 | Cc1ccc(C(=O)NCC(=O)OCC(=O)NCCNC(=O)COC(=O)CNC(=O)c2ccc(C)cc2)cc1 | inconclusive: 89.1 µM [inhibitor, single point] | –
20 | CN(CCOc1ccccc1)CC(=O)Nc1ccc(Cl)cc1[N+](=O)[O-] | active: 3.55 µM | –
21 | CC(C)NCC(O)COCCOc1ccc(C(C)(C)C)cc1 (centres undefined) | inconclusive: 70.8 µM [inhibitor, single point] | –
22 | CC(CN1CCOCC1)OC(=O)COc1ccc(F)cc1 (centres undefined) | inconclusive: 10 µM [inhibitor, partial curve, poor fit] | –
23 | Cc1ccc(S(=O)(=O)Nc2cccc(C(=O)NCC3(N4CCCCC4)CCCCC3)c2)cc1F | inconclusive: 79.4 µM [inhibitor, single point] | –

Row | SMILES | Potency | activity, negative = inhibition
24 | Cc1c(C(=O)OC2CCC(C)CC2)[nH]c2c1C(=O)CC(c1ccc(F)cc1)C2 (centres undefined) | – | inactive: 6.88%
25 | COc1ccc(S(=O)(=O)NCC(=O)N(CC(=O)NCC2CCCO2)c2cc(C)ccc2C)cc1 (centres undefined) | inconclusive: 79.4 µM [inhibitor, partial curve, poor fit] | –
26 | CCCCN1C(=O)c2[nH]nc(-c3ccccc3O)c2C1c1ccc(OCc2ccccc2)c(OC)c1 (centres undefined) | inconclusive: 31.6 µM [inhibitor, partial curve, poor fit] | –
27 | O=C(Nc1ccc([N+](=O)[O-])cn1)C1CC1 | inconclusive: 39.8 µM [inhibitor, single point] | –
28 | CCNS(=O)(=O)c1ccc(NC(=O)c2cncc(Br)c2)cc1 | inconclusive: 0.794 µM [inhibitor, partial curve, poor fit] | –
29 | CCCCn1cc2c(c1-c1ccc(Br)cc1)c(=O)n(C)c(=O)n2C | inconclusive: 17.8 µM [inhibitor, partial curve, poor fit] | –
30 | CC(=O)Nc1ccc(-c2csc(Nc3cc(C)ccn3)n2)cc1 | inconclusive: 1.58 µM [inhibitor, full curve, poor fit] | –
31 | CCCCn1c(CCn2nc(C)c(Br)c2C)n[nH]c1=S | inconclusive: 0.447 µM [inhibitor, full curve, poor fit] | –
32 | CC(=O)c1c(C(C)=O)c(C)n(NC(=O)c2ccccc2O)c1C | inconclusive: 39.8 µM [inhibitor, single point] | –
33 | O=C(c1ccco1)N1CCN(C/C=C/c2ccccc2)CC1 | active: 56.2 µM | –
34 | S=C(NCCc1ccccc1)N1CCN(C2CCCCC2)CC1 | inconclusive: 79.4 µM [inhibitor, partial curve, poor fit] | –
35 | CC1=NN(Cc2ccccc2)C(=O)C1C(c1ccc(Cl)cc1)C(C#N)C#N (centres undefined) | inconclusive: 39.8 µM [inhibitor, single point] | –
36 | CCC(C)NC(=O)CSc1ncccc1C(=O)O (centres undefined) | inconclusive: 79.4 µM [inhibitor, single point] | –
37 | O=C(O)c1ccccc1/C=N/Nc1ccc(S(=O)(=O)N2CCOCC2)cc1[N+](=O)[O-] | inconclusive: 50.1 µM [inhibitor, partial curve] | –
38 | Cc1cccc(NC(=O)c2cccc(S(=O)(=O)Nc3ccccc3C(=O)O)c2)c1 | – | inactive: -0.906% [at 0.501 µM]
39 | Cc1cc2c([nH]c3ccccc32)c(C)n1 | inconclusive: 79.4 µM [inhibitor, single point] | –
40 | O=C1Nc2ccc(Br)cc2/C1=N/N=C/C1=C(N2CCOCC2)C(=C\c2ccccc2)/CC1 | active: 12.6 µM | –
41 | Cc1cccc(OCC(=O)Nc2c(C(=O)Nc3ccc(F)cc3)oc3ccccc23)c1 | – | inactive: 6.64%
42 | O=C1ON=C(c2ccc(Cl)cc2)/C1=C/c1ccc(O)cc1 | active: 50.1 µM | –
43 | Cc1cccc(N2C(=O)CSC23C(=O)N(C)c2ccccc23)c1 (centres undefined) | inconclusive: 7.94 µM [inhibitor, partial curve, poor fit] | –
44 | Cc1ccc(S(=O)(=O)Nn2c(O)c(C=C3N=c4ccccc4=N3)sc2=S)cc1 | inconclusive: 22.4 µM [inhibitor, partial curve, poor fit] | –
45 | Cn1c[n+](C)cc1/C=N/O | active: 39.8 µM | –
46 | COC(=O)c1c(NC(=O)CCl)sc(C(=O)N2CCOCC2)c1C | – | inactive: 20.1% [at 102 µM]

Row | SMILES | Potency | activity, negative = inhibition
47 | Cc1cccc(-n2c(O)c(C=Nc3ccccc3)c3ccccc3c2=O)n1 | inconclusive: 79.4 µM [inhibitor, partial curve, poor fit] | –
48 | Cc1ccccc1NC(=O)CSc1cn[nH]n1 | inconclusive: 79.4 µM [inhibitor, single point] | –
49 | O=C(CSc1nnc(-c2cccs2)n1Cc1ccccc1)NCc1ccc2c(c1)OCO2 | inconclusive: 22.4 µM [inhibitor, single point] | –
50 | O=C(COc1ccccc1[N+](=O)[O-])Nc1ccc(NC(=O)c2cc3ccccc3o2)cc1 | inconclusive: 89.1 µM [inhibitor, single point] | –
51 | COc1cccc(NC(=O)C(NCC2CCCCC2)c2ccccc2)c1 (centres undefined) | active: 3.16 µM | –
52 | COc1ccc(S(=O)(=O)Nc2cccc(-c3ccc(N4CCCCCC4)nn3)c2)cc1OC | inconclusive: 398 nM [inhibitor, partial curve, poor fit] and inconclusive: 50.1 µM [inhibitor, single point] | –
53 | CCCN(Cc1nnc(-c2cccs2)o1)C(=O)CN1C(=O)NC2(CCCCC2)C1=O | inconclusive: 89.1 µM [inhibitor, partial curve, poor fit] | –
54 | CCOc1cc(C(=S)N2CCOCC2)ccc1OC(=O)c1cc(OC)c(OC)c(OC)c1 | – | inactive: 4.42% [at 102 µM]
55 | O=C(O)c1ccccc1NS(=O)(=O)c1cccc(C(F)(F)F)c1 | – | inactive: -6.06% [at 2.33 µM]
56 | CCOc1ccc(OCCCC(=O)N(C)CC(=O)Nc2ccc(N3CCOCC3)cc2)cc1 | active: 35.5 µM | –
57 | O=C(CSc1ccnc(=O)[nH]1)NCc1ccc(F)cc1 | – | inactive: 13.4%
58 | Cc1ccc(C)c(N2CCN(C(c3ccncc3)c3nnnn3Cc3ccccc3)CC2)c1 (centres undefined) | active: 3.16 µM | –
59 | O=C(CSc1ncn[nH]1)c1ccccc1 | active: 3.16 µM | –
60 | CCOC(=O)C1CCN(C(=O)Cn2nc(C)n3c(cc4c(OC)cccc43)c2=O)CC1 | – | inactive: -3.76%
61 | Cc1cccc(Oc2coc3cc(O)ccc3c2=O)c1 | inconclusive: 0.891 µM [inhibitor, partial curve, poor fit] | –
62 | CN1CCN(C2=CC3=CC(=C(C#N)C#N)CCC3CC2)CC1 (centres undefined) | inconclusive: 44.7 µM [inhibitor, partial curve, poor fit] | –
63 | COC(=O)c1sccc1S(=O)(=O)N1CCN(c2cccc(C)c2)C(C)C1 (centres undefined) | – | inactive: 1.89%
64 | COc1ccccc1C1=Nn2c(COc3ccccc3)nnc2SC1 | active: 3.16 µM | –
65 | COC(=O)CNC(=O)C(=O)OC | – | inactive: 29.7%
66 | COc1ccc(OC)c(C2CC(=O)C3=C(C2)NC(=O)CC3c2ccc(O)c(OC)c2)c1 (centres undefined) | – | inactive: -0.96% [at 2.33 µM]
67 | CC(C)n1cc(/C=N/NC(=O)COc2cccc3cccnc23)c2ccccc21 | active: 44.7 µM | –
68 | Cc1cc(C)nc(SCc2ccc(C(=O)N/N=C/C3CCCCC3)cc2)n1 | – | inactive: 15.7%
69 | Cc1c(C(=O)OCc2ccccc2)[nH]c2c1C(=O)CC(c1ccco1)C2 (centres undefined) | inconclusive: 31.6 µM [inhibitor, single point] | –
